The supplement of paper PMC3334620
Over roughly 33,000 sequences, “E-score (-0.5 to 0.5)” has its median near -0.012; the highest 2% begin near 0.29. This is one part of the list.

Each sequence was assayed against T1, Ybr033w (UniProt P38073) (assay: PBM E-score (8-mer binding enrichment) (E-score (-0.5 to 0.5)); higher = stronger / more preferred TF binding; most listed sequences are background and not binding sites). Conditions: protein concentration: 200 nM; construct: GST-full length.
T1 sequence: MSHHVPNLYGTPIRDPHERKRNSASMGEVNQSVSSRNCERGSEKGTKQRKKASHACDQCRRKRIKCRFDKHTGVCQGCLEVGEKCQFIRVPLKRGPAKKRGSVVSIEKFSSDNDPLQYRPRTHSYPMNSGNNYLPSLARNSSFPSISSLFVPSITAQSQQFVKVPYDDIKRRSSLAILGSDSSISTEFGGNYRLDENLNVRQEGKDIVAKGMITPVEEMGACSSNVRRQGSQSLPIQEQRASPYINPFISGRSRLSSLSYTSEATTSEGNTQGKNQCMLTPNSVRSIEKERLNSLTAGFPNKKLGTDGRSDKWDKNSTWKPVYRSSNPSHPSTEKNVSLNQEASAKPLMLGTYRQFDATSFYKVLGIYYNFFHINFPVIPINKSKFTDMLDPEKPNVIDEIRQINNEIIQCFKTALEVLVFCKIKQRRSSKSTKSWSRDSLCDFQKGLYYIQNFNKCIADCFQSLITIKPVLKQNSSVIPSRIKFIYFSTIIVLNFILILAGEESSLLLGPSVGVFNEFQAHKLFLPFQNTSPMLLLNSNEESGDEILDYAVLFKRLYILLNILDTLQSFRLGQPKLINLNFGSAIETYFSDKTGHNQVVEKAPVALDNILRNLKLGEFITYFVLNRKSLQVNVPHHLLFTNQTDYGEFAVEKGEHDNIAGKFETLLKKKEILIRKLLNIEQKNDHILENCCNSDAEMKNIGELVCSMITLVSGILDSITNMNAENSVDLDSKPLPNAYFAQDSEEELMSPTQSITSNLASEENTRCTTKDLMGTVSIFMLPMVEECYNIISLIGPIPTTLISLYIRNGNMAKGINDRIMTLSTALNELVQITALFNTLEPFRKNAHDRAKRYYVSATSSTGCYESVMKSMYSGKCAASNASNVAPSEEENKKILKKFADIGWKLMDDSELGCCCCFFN
Procedure, shortened: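 Detection of bound protein used fluorescent anti-GST, with scans normalised by masliner. The proteins were GST-tagged yeast transcription factors applied at about 100-200 nM to universal all-10-mer Agilent arrays made double-stranded by primer extension. Each ungapped eight-base word, pooled with its reverse complement, was scored with an E-score from the Universal PBM Analysis Suite.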

Row | Sequence | PBM E-score
1 | ACGACGTA | 0.0878
2 | GCGCAACA | -0.0911
3 | CCGGTAAC | -0.112
4 | AACTACCT | 0.0764
5 | ATACGGTG | 0.043
6 | ATCAACAA | 0.257
7 | ACGATGCC | -0.366
8 | ATAAGTTG | 0.119
9 | CTAAAGCC | -0.09
10 | ACTTGACG | -0.142
11 | AAGGCCTA | -0.103
12 | CTTTGCGA | -0.00836
13 | ACCCTCTG | -0.127
14 | CGTGTTAG | 0.0687
15 | GAAAGGTC | -0.163
16 | GCATGTTA | 0.111
17 | CTAGTTTA | 0.0146
18 | CATTTACA | 0.197
19 | CGCGCTTA | 0.094
20 | AAAGTGGA | 0.0854
21 | ACTCATAT | 0.141
22 | AGGACGAG | -0.178
23 | GGTTGATA | 0.145
24 | GAGAGGCC | -0.251
25 | AATTGTGT | 0.0367

Row | Sequence | PBM E-score
26 | TAGACAAA | 0.0827
27 | CCAGGCCA | -0.27
28 | AATGTTCG | 0.0248
29 | CCGTCCCC | -0.424
30 | ATCTCTAG | -0.0891
31 | ATACTTTA | 0.23
32 | CTGCATAC | 0.0438
33 | CGGTACCC | -0.332
34 | CCCAGCAG | -0.0407
35 | CCGCATGC | -0.263
36 | AACTGGCA | -0.0894
37 | AACTCAAT | 0.0866
38 | GCGAATAC | -0.0873
39 | AACAATGG | 0.037
40 | CAAGTTAA | 0.068
41 | TTCCCCAA | -0.178
42 | ACTATACT | 0.173
43 | AAATAGCT | 0.0379
44 | GTGCGCTA | 0.0193
45 | CCCATTTC | -0.266
46 | CACGCTTC | -0.392
47 | CTGTTCAA | 0.124
48 | CTATCATA | 0.099
49 | AAACGACT | -0.0113
50 | TATTTTGA | 0.115

Row | Sequence | PBM E-score
51 | CAGCATCA | 0.029
52 | GCCATTTA | -0.0426
53 | GCATGCCA | -0.156
54 | ATGGGAAT | 0.0234
55 | TCGTCCAA | 0.0311
56 | CAAAGGCA | -0.0186
57 | GGCCATTA | 0.0667
58 | CAGTTGGC | -0.113
59 | ACGCGATA | -0.123
60 | CACATACG | -0.14
61 | CGTGTACC | -0.102
62 | CGGTCTGA | -0.075
63 | GTTGCCAA | 0.00317
64 | AATATCGG | 0.198
65 | AATCGCAG | 0.0974
66 | ACTATTAA | 0.325
67 | AGAAATGC | 0.135
68 | CGAGGAAC | 0.041
69 | ATTCTGGA | 0.0822
70 | AAGCAGCA | -0.0562
71 | ATTAGTCA | 0.153
72 | AATTTCTA | 0.209
73 | GTGCCCCA | -0.254
74 | AAACCCGG | 0.0726
75 | TCAGACAA | -0.101

Row | Sequence | PBM E-score
76 | GGGCGATA | -0.326
77 | CAGATAAA | 0.194
78 | AAAATCAT | 0.31
79 | ATGTCCTG | 0.0605
80 | ACCTAGCT | -0.188
81 | AATGGAGT | -0.00198
82 | GATCTTTA | 0.142
83 | AGGTCTTC | -0.239
84 | ATTGGATG | 0.131
85 | GACCACCA | -0.0711
86 | AACTATAC | 0.151
87 | AACGTTAC | -0.0428
88 | GAAGATCA | 0.218
89 | GCGATGCA | -0.301
90 | ACCAAACC | 0.062
91 | GTCGCGAA | -0.0704
92 | ACCGACAT | 0.0515
93 | CGAACAGA | -0.0434
94 | AAGATCAC | -0.0901
95 | GCCAGGTA | -0.171
96 | CCAGGCTC | -0.152
97 | TATCCGAA | 0.264
98 | CCGGGTTC | -0.0329
99 | GAGAGCCA | -0.251
100 | CGAGGATC | 0.0125

Row | Sequence | PBM E-score
101 | AAGGGCTA | -0.0643
102 | CCTGGGAG | -0.201
103 | GGGTGACC | -0.17
104 | CAAAACAA | 0.0338
105 | GACATTCC | -0.0632
106 | CACTCATG | 0.0247
107 | ACGCACAG | 0.0777
108 | CTTGCACC | -0.109
109 | CCGCCCAC | -0.0778
110 | AGGCGCTA | -0.0272
111 | AGGCTAAA | 0.101
112 | CACCGTTA | -0.0335
113 | GGCGACAC | -0.146
114 | CGTCTCGA | 0.105
115 | AAGGATCC | -0.0384
116 | AATGATTA | 0.251
117 | AAATATTG | 0.274
118 | GTCTATGA | 0.0614
119 | CCGGCAAG | -0.061
120 | AGTTCATC | 0.238
121 | GGCGGGTA | -0.268
122 | AAGGATGT | 0.135
123 | ACGGCAGG | -0.238
124 | GTATATGA | 0.233
125 | ATTTACTA | 0.269

Row | Sequence | PBM E-score
126 | ATTTTTCG | 0.18
127 | GGGTTCAA | 0.0202
128 | CCGGATAA | 0.454
129 | GTTGGAGA | 0.0621
130 | CTCTCCCA | -0.196
131 | GTTGTGAA | 0.123
132 | CTATTGTC | 0.02
133 | ACGGGAAT | 0.0676
134 | GATGGAAA | -0.0152
135 | TCCTCTCA | 0.0168
136 | ACCAAGTA | 0.13
137 | GTTACTAA | 0.134
138 | CTGTTCGC | -0.0349
139 | CTGGGGTA | -0.116
140 | GCCCACCC | -0.168
141 | GTCGGGTA | 0.0573
142 | GGGTCTAA | -0.0545
143 | CTTAGATA | 0.138
144 | ATACCGTA | 0.0449
145 | AATCGCCT | 0.173
146 | ATGGCCAT | -0.0509
147 | AACGCTCG | -0.0603
148 | CCAAACTC | 0.11
149 | CGACCTAC | -0.288
150 | ACCCGCGC | 0.168

Row | Sequence | PBM E-score
151 | GATGGGGC | -0.24
152 | GGCCTACA | -0.0971
153 | CGGGGAAC | 0.0127
154 | AAAATCGC | 0.186
155 | CCGTACAG | -0.115
156 | ACCGTAGT | -0.0649
157 | TGTGTAAA | 0.231
158 | CAATCACA | 0.0651
159 | AAACCCAA | 0.269
160 | ATGAATTC | 0.19
161 | AACAATCA | 0.279
162 | ATCATAGG | -0.0728
163 | ACCCGAAG | -0.0833
164 | CACTTTCC | -0.155
165 | GCGTTAGC | -0.0265
166 | GGGTGCGA | -0.231
167 | AGGTGTCA | 0.0718
168 | TGTTCAAA | 0.147
169 | CCGAAAAA | 0.219
170 | AAAAATCA | 0.24
171 | GTTCAGGA | 0.0149
172 | CCATACAA | 0.0328
